PubChem BioAssay AID1508623 (National Center for Advancing Translational Sciences (NCATS), 2021)
Out of some 48,000 compounds screened, about 450 (0.94%) were called active. Roughly 19% stayed inconclusive and do not appear here. Calls follow the shape of the dose curve; as a rule, active = well fitted inhibition curve with a large enough effect; inconclusive = small, poorly fitted or top-dose-only effect; inactive = no such curve, though single readings can be large or run the other way. Some of the results follow.

test: Primary qHTS for Identification of Small Molecule Inhibitors of Huntingtin Promoter Activity; conditions: HEK293 HTT promoter firefly luciferase reporter (activity 0% = vehicle and -100% = no light), 24 h; series mostly up to 57.5 µM; activity change, negative = inhibition: at the top concentration; also: nearly all actives have a fitted effect of over 50% in size
Summary of the method: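 HEK293 Fluc reporter, 2,500 cells/well, 24 h pre-culture; cpds up to 57.5 uM final, 24 h 37 degrees C; Dual-Glo, 10 min RT; normalized vehicle = 0%, zero RLU = -100%.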

Activity change, negative = inhibition, inactive:
Cc1ccc(-c2nc(C)c(CCNC(=O)c3cccs3)s2)cc1 -17.4%, Cc1ccc(CN2CCCn3nc(C(=O)NCCc4ccccc4C)cc3C2=O)cc1 -32.9%, COc1cc(C(=O)Nc2ccccc2-c2nc(-c3ccccc3)no2)cc(OC)c1OC 2.64%, CCN(CC)c1nc2ccccc2nc1C(=O)Nc1ccc(C(C)=O)cc1 -29.1%, Cc1ccc(C)c(NC(=O)CN(C)S(=O)(=O)c2cccc3nsnc23)c1 -13.4%, Cc1ccc(-n2nc(C(=O)Nc3ccc(F)cc3F)c3c4ccccc4n(C)c3c2=O)cc1 -24.7%, Cc1cccc(N(C)c2nc3ccc(C(=O)c4ccccc4)cc3n3c(C)nnc23)c1 -29.2%, CC(C)(C)C1CCc2c(sc(NC(=O)c3cc4ccccc4c(=O)o3)c2C(N)=O)C1 (stereo not drawn) 1.39%, Cc1ccc(C)c(NC(=O)Cn2c(=O)n(CCC(C)C)c(=O)c3cccnc32)c1 -14.7%, COc1ccccc1NC(=O)Cn1cc(S(=O)(=O)Cc2ccccc2)c2ccccc21 -25.6%, CCCCCOc1ccc(/C=C/C(=O)Nc2sc(C)c(C)c2C(=O)OCC)cc1OC 1.82%, CCN(CC)CCNC(=O)Cn1ncc2c3ccccc3n(Cc3ccc(Cl)cc3)c2c1=O -3.63%, Cc1ccc(-c2csc(-c3nc(-c4ccc(Br)s4)cs3)n2)cc1 -3.79%, COc1ccc(NC(=O)Cn2nnc(C(=O)NCc3cccs3)c2N)cc1 -16.5%, Cc1ccc(NC(=O)CSc2nc(=O)n(Cc3cccnc3)c3c2CCC3)cc1F -19.6%, CCc1cccc(C)c1NC(=O)c1cc(S(=O)(=O)N(Cc2ccc(C(=O)OC)cc2)Cc2ccc(OC)c(OC)c2)ccc1F -18.3%, Cc1ccccc1C(=O)N1CC/C(=N\OS(=O)(=O)O)c2ccc(Cl)cc21 -2.74%, COc1ccc(NC(=O)CN2C(=O)CC(c3ccc(C)c(C)c3)=Nc3ccccc32)cc1OC 28.3%, CCC(CC)C(=O)Nc1ccc2nc(SCC(=O)N3CCCC3)sc2c1 -15.8%, CC(C)CCNC(=O)CN1C(=O)CSc2ccc(S(=O)(=O)N3CCC(C)CC3)cc21 -8.38%, COc1ccc(NC(=O)[C@H]2O[C@@H]3OC(C)(C)O[C@@H]3[C@H]3OC(C)(C)O[C@H]32)c(OC)c1 24.3%, CCOC(=O)C1CCCN(c2nc3c(S(=O)(=O)c4ccc(CC)cc4)nnn3c3ccsc23)C1 (stereo not drawn) -1.61%, Cc1ccc2c(c1)c1c(c(=O)n(-c3cccc(Cl)c3)c(=O)n1CC(=O)NCC1CCCO1)n2C (stereo not drawn) -9.58%, Cn1c(=O)[nH]c(=O)c2c1nc(N1CCOCC1)n2Cc1ccccc1 -5.22%, CCc1cccc(NC(=O)CCc2nc3cccnc3n2Cc2ccc(OC)cc2)c1 -25.5%, C=C1C(=CC=C2CCC[C@]3(C)[C@@H]([C@H](C)C=C[C@H](C)C(C)C)CC[C@@H]23)C[C@@H](O)C[C@@H]1O 19.7%, CCOC(=O)Cc1ccc(NC(=O)Nc2c[nH]c(=O)[nH]c2=O)cc1 -7.64%, Cc1ccccc1OCC(=O)Nc1ccc(-c2nc3ccccc3o2)cc1 26.7%, COc1ccc(CN2C(=O)C(NC(=O)c3cccc(C)c3)(C(F)(F)F)N=C2c2ccccc2)cc1 (stereo not drawn) -20.7%, Cn1c2ccccc2c2cnn(CC(=O)NCCCN3CCCCC3)c(=O)c21 7.02%, CCc1ccccc1NC(=O)CSc1nncn2c1cc1oc(C)cc12 -25.7%, CCOC(=O)C(CC)n1nnc2sc(-c3ccccc3)cc2c1=O (stereo not drawn) 16.5%, O=C(NCCS(=O)(=O)N1CCN(c2ccc(F)cc2)CC1)C(c1ccccc1)c1ccccc1 -24.8%, Cc1ccc2oc(=O)c3cnn(CC(=O)N4CCN(c5ccc(F)cc5)CC4)c3c2c1 -1.81%, CC(C)Oc1ccccc1-c1nc(SCC(=O)c2ccc(F)cc2)n[nH]1 -37.9%, Cc1ccc(CNC(=O)CSc2nc3c(sc4ccccc43)c(=O)n2CCCOC(C)C)cc1 -15%, Cc1ccc(-n2c(=O)c3sc4ccccc4c3n(CC(=O)NC3CCCC3)c2=O)cc1C -21.2%, COc1ccc(OC)c(CCNC(=O)c2cc3c(s2)-c2c(C)cccc2OC3)c1 -27.3%, CCOc1ccc(NC(=O)C(Cc2ccccc2)NS(=O)(=O)c2ccc3c(c2)oc(=O)n3C)cc1 (stereo not drawn) -32%, Cc1c(Cl)cccc1-c1ccc(CNCCSc2nnnn2-c2ccccc2)o1 13.5%, CCN(CC)S(=O)(=O)c1ccc(NC(=O)CN(c2ccccc2)S(=O)(=O)N(C)C)cc1 -11.9%, CCOc1ccc(CNC(=O)c2ccc3c(c2)c(C)c(C)n3Cc2ccccc2)cc1OC 10.2%, Cc1ccc(-n2ncc(C(=O)N3CCN(c4cc(Cl)ccc4C)CC3)c2C2CCN(C(=O)OC(C)(C)C)CC2)cc1 0.305%, COc1ccc(CCNC(=O)c2ccc3c(c2)N(Cc2ccccc2)C(=O)c2ccccc2S3=O)cc1OC (stereo not drawn) 13.5%, COC(=O)c1ccc(Cl)cc1NC(=O)Nc1nnc(N2CCCC2)s1 7.92%, COc1ccc(CNc2ncnc3c2nc2n3CCCC2)cc1 -14.4%, COC(=O)CSc1ncc2c(n1)-c1ccccc1N(Cc1ccc(Cl)cc1)S2(=O)=O -12.7%, COc1ccc(CCn2c3c(c(=O)[nH]c2=O)C(NC(=O)c2ccc(Cl)cc2)(C(F)(F)F)C(=O)N3)cc1OC (stereo not drawn) -1.51%, Cc1cccc(CNC(=O)Cn2c(-c3cccs3)cc3ccccc32)c1 -29.9%, Cc1cccc(OCC(=O)Nc2ccccc2C(=O)OCc2cc(=O)n3ccsc3n2)c1 -5.72%, Cn1ncc2c(Nc3cc(C(F)(F)F)ccc3Cl)ncnc21 -10.3%, CC(NC(=O)c1ccc2c(c1)N(Cc1ccc(Cl)cc1)C(=O)CS2)c1ccccc1 (stereo not drawn) -17.7%, O=C(NNC(=O)c1ccc(CNS(=O)(=O)c2ccc(F)c(Cl)c2)cc1)c1ccccc1 30.5%, CCc1ccc(-n2nnc(-c3nc(-c4cccs4)no3)c2N)cc1 83.2%, CC1CCN(C(=O)CSc2n[nH]c(-c3ccc(F)cc3)n2)CC1 -20.8%, COc1ccc2c(c1)c1c(c(=O)n(-c3ccccc3C)c(=O)n1Cc1cccc(C(F)(F)F)c1)n2C -14.1%, CC(C)OC(=O)c1ccc(Cn2nnc3sc4c(c3c2=O)CCCC4)cc1 -15.1%, O=C(Cn1ccnc1[N+](=O)[O-])NCCO 11.9%, CCCN(c1c(C)n(C)n(-c2ccccc2)c1=O)S(=O)(=O)c1ccc(C)cc1 -9.57%, CC(C)(C)C(=O)Nc1ccc(-c2nc3ccc(NC(=O)C(C)(C)C)cc3[nH]2)cc1 50.3%, Cc1ccc(S(=O)(=O)NCC2CCC(C(=O)NCCc3ccccc3)CC2)cc1 (stereo not drawn) -4.44%, CCOC(=O)c1cnc2cc(C(F)(F)F)ccc2c1Nc1ccc(F)cc1F -21.9% [at 11.5 µM], CC(=O)Nc1ccc(S(=O)(=O)NC2(C(F)(F)F)C(=O)Nc3c2c(=O)[nH]c(=O)n3-c2cccc(Cl)c2)cc1 (stereo not drawn) -17.8% [at 11.5 µM], CCC(=O)N1CCc2cc(CNS(=O)(=O)c3cc(OC)ccc3OC)ccc21 -14.4%, O=C(c1ccc(F)cc1)c1cn(Cc2ccccc2F)c2cc3c(cc2c1=O)OCCO3 -5.83%, Oc1ccc(Cl)cc1C1=Nc2ccccc2N=C(c2ccccc2)C1 -0.9%, Cc1ccc(CSc2nc3cccnc3n2Cc2ccc(C(=O)NCc3ccco3)cc2)cc1 -11.7%, Cc1ccc(-c2nc3c(c(SCc4ccc(Br)cc4)n2)Cc2c(CO)cnc(C)c2O3)cc1 23.9%, CC(=O)OCC(COC(C)=O)OC(C)=O 7.37%, O=C(CSc1nc2c([nH]c3ccccc32)c(=O)n1-c1ccc(Cl)cc1)N1CCc2ccccc21 3.66%, CSc1cccc(NC(=O)c2cnn(-c3ccc(F)cc3)c2-n2cccc2)c1 -15.6%, COc1ccc(CCNC(=O)CCc2c(C)c3cc4c(C)c(C)oc4cc3oc2=O)cc1OC 5.51%, O=C(Cn1ncn2c(cc3sccc32)c1=O)NCCc1ccccc1 4.55%, Cc1ccc2c(=O)cc(C(=O)Nc3ccc(S(=O)(=O)N(C)c4ccccc4)cc3)oc2c1C -24.5%, COc1ccc(-c2noc(CN(C)S(=O)(=O)c3c(C)cc(C)cc3C)n2)cc1OC -3.52%, CCC(C(=O)Nc1cccc(Cl)c1C)n1nc(C)c2sc3ccccc3c2c1=O (stereo not drawn) -2.19%, COc1ccc(C)cc1NC(=O)c1ccc(NS(=O)(=O)c2c(C)noc2C)cc1 -3.43%, CC(=O)N1c2ccccc2C(=O)C1N1CCN(c2ccccc2F)CC1 (stereo not drawn) -17.4%, CCOC(=O)c1ccc(NC2=CC(c3ccc(OCC)cc3)N(c3ccc(C(=O)OCC)cc3)C2=O)cc1 (stereo not drawn) -5.69%, CCOC(=O)c1cnc2cc(C(F)(F)F)ccc2c1Nc1cc(C)ccc1OC -13.1% [at 11.5 µM], Cc1ccc(-c2nc(CCNC(=O)c3ccc(C)c(C)c3)cs2)cc1 -30.7%, COc1ccccc1-c1nc2n(n1)C(c1ccccc1Cl)C(C(=O)Nc1cccnc1)=C(C)N2 (stereo not drawn) -10.8%, CCCCn1cc(S(=O)(=O)c2ccc(C)cc2)c(=O)c2cc(F)c(N3CCCCC3)cc21 -2.28%, Cc1cc(O)c(C(c2ccccc2)N2CCCCC2)c(=O)n1Cc1ccco1 (stereo not drawn) -6.25%, CCOc1ccccc1NC(=O)CSc1nnc2[nH]c(=O)cc(C)n12 -5.61%, COCCCNC(=O)C1CCN(Cc2cc3ccccc3n2Cc2ccccc2C)CC1 -14.2%, COc1ccc(NC(=O)c2c(NCc3cccs3)sc3c2CCC(C)C3)c(OC)c1 (stereo not drawn) -12%, CCCCCN(CCCOC)C(=O)C(CCC(=O)O)NC(=O)c1ccc(Cl)c(Cl)c1 (stereo not drawn) 7.67%, Cc1c(C(=O)N(Cc2ccccc2F)C2CCS(=O)(=O)C2)oc2ccccc12 (stereo not drawn) -10.7%, Cc1nn(C)c2c1c(C(F)(F)F)cc(=O)n2C(C)C(=O)Nc1ccccc1F (stereo not drawn) -38.3%, COc1ccc(-c2nnc(SCC(=O)Nc3cccc(C(F)(F)F)c3)s2)cc1 -13.7%, COc1ccc(S(=O)(=O)NCC(c2cccs2)S(=O)(=O)c2ccccc2)cc1OC (stereo not drawn) -16%, CC(=O)N1CCc2cc(Br)cc(S(=O)(=O)CCC(=O)N3CCN(c4ccc(F)cc4)CC3)c21 -6.2%
